# From PubChem BioAssay AID504466 (National Center for Advancing Translational Sciences (NCATS), 2011)
# Screen size: about 330,000 compounds; about 4,200 (1.3%) were called active. This list was built around the results that the source calls inconclusive (neither active nor inactive); the mix of calls is not that of the screen. Calls follow the shape of the dose curve; as a rule, active = well fitted activation curve with a large enough effect; inconclusive = small, poorly fitted or top-dose-only effect; inactive = no such curve, though single readings can be large or run the other way. Potencies of inconclusive entries are doubtful fits and often do not repeat.
# Experiment: qHTS screen for small molecules that induce genotoxicity in human embryonic kidney (HEK293T) cells expressing luciferase-tagged ELG1; also: nearly all actives have a fitted effect of over 60% in size; as to activity change, positive = activation: % of control where 0% means no effect
# Conditions: HEK293T ELG1-luciferase reporter, luminescence, 16 h; series mostly up to 46 µM; activity change, positive = activation: at the top concentration
# Procedure, shortened: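 ELG1-luciferase HEK293T cells, 2,000/well; compound pinned in; 16 hr, 37 °C, 5% CO2; ONE-Glo, 30 min RT; luminescence on CCD imager.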
# Potency is read from the fitted curve at half-maximal effect; tags tell the direction and shape of the fitted curve.
SMILES,Potency,"activity change, positive = activation"
CC(=O)c1c(C)nc(-c2ccc(Cl)cc2)nc1N,active: 4.11 µM,
O=C(/C=C/c1ccccc1Cl)NC1CCCCC1,"inconclusive: 20.6 µM [activator, partial curve, poor fit]",
COC(=O)c1cc(NC(=O)Cc2cccs2)cc(C(=O)OC)c1,,inactive: -5.87%
COc1ccc(C(=O)Nc2ccc([N+](=O)[O-])cn2)c(OC)c1,active: 1.16 µM,
O=C(Cn1ncc(N2CCCC2)c(Br)c1=O)c1ccc(Cl)cc1,"inconclusive: 14.6 µM [activator, partial curve]",
CN(C)c1ccc(NC(=O)C(=O)C2C(=O)Nc3ccccc32)cc1 (configuration not stated),"inconclusive: 16.4 µM [activator, partial curve, poor fit]",
O=C(Cn1nnc(-c2ccccc2F)n1)Nc1ccc2c(c1)OCCO2,"inconclusive: 25.9 µM [activator, single point]",
CN1CCC(=O)N([C@H](CSc2ccccc2)c2ccccc2)CC1,,inactive: 8.95%
O=C(O)CCc1ccc(-c2ccc(Br)cc2)n1Cc1ccco1,,inactive: -0.542%
COc1ccc2cc(C(=O)CS(=O)(=O)c3ccccc3)c(=O)oc2c1,"inconclusive: 32.6 µM [activator, partial curve, poor fit]",
COc1ccc(S(=O)(=O)CCC(=O)NC2CCCCC2)cc1,,inactive: 3.2%
Cc1nn(C)c(C)c1CN(C(=O)C1CCC(=O)N(C2CCCCCC2)C1)C(C)C (configuration not stated),"inconclusive: 25.9 µM [activator, partial curve, poor fit]",
CN1CCN(C(c2ccccn2)c2cc(Cl)c3cccnc3c2O)CC1 (configuration not stated),"inconclusive: 16.4 µM [activator, single point]",
CCN(CC)c1ccc(/C=C2\C(=O)N(c3nnc(C)c(=O)[nH]3)N=C2C)cc1,"inconclusive: 29.1 µM [activator, single point]",
Clc1ccc(CSc2nnc3ccccn23)c(Cl)c1,"inconclusive: 20.6 µM [activator, single point]",
Cc1cccc(N=Nc2c(O)[nH]c3ccc(F)cc23)c1,"inconclusive: 16.4 µM [activator, partial curve]",
CC(=O)NCCc1nc2cc(NC(=O)c3ccccc3Cl)ccc2n1C,"inconclusive: 23.1 µM [activator, partial curve, poor fit]",
O=C(N/N=C/c1ccccn1)c1sc2ccccc2c1Cl,"inconclusive: 25.9 µM [activator, single point]",
Cc1nn(C)c(C(=O)NNC(=O)NC2CCCCC2)c1Cl,,inactive: -3.86%
COc1ccc(/C=C/c2ccncc2)cc1,"inconclusive: 16.4 µM [activator, partial curve, poor fit]",
O=C1CCc2cc(S(=O)(=O)Nc3ccc(F)cc3)cc3c2N1CC3,"inconclusive: 25.9 µM [activator, partial curve, poor fit]",
Cc1cc(N)ccc1N=Nc1c(C)n(C)n(-c2ccccc2)c1=O,"inconclusive: 20.6 µM [activator, partial curve, poor fit]",
CCCN1Cc2cccc(C(=O)Nc3ccc(CC)cc3)c2C1=O,,inactive: -0.489%
COc1ccc(N=c2scc(-c3ccc(OC)cc3)n2CCO)cc1,"inconclusive: 32.6 µM [activator, partial curve, poor fit]",

SMILES,Potency,"activity change, positive = activation"
O=C(Cn1ncc2c1-c1ccccc1OC2)Nc1ccc(Cl)cn1,"inconclusive: 18.4 µM [activator, single point]",
Cc1ccc(S(=O)(=O)N[C@H](C(=O)OCC(=O)NC(=O)Nc2ccc3c(c2)OCCO3)C(C)C)cc1,,inactive: -7.6%
Cc1ccc(/C=N/c2sc3c(c2C(N)=O)CCCC3)o1,,inactive: 12.1%
CCc1c(C#N)c(SCCC(=O)Nc2ccc(C)cc2)nc2c1C(=O)CC(C)(C)C2,,inactive: -8.46%
COc1cc(SC)ccc1C(=O)Nc1ncc(C)s1,"inconclusive: 0.116 µM [activator, partial curve, poor fit]",
O=C(COC(=O)c1cccc(Br)c1)NCc1ccco1,,inactive: 2.09%
C/C(=N\NC(=O)c1cc(C)nc2ccccc12)c1cccs1,,inactive: -1.74%
CCOc1ccccc1NS(=O)(=O)c1ccc(-c2cnc(C3CC3)o2)cc1,"inconclusive: 2.06 µM [activator, partial curve, poor fit]",
Cn1c(NCc2ccc(Cl)cc2)nc2ccccc21,"inconclusive: 16.4 µM [activator, partial curve]",
COc1ccccc1-c1nc(S(=O)(=O)c2ccccc2)c(N2CCCCC2)o1,,inactive: -2%
Cc1ccc(NC2Sc3ccccc3NC2=O)cc1 (configuration not stated),"inconclusive: 2.91 µM [activator, full curve]",
CCn1nccc1C(=O)Nc1ccc(Cl)cn1,"inconclusive: 12.6 µM [activator, single point]",
CC1CCC(NC(=O)CCNC(=O)c2ccc(Br)cc2)CC1 (configuration not stated),"inconclusive: 18.3 µM [activator, partial curve, poor fit]",
CCOC(=O)COc1ccccc1C1Nc2ccccc2C(=O)N1c1cccc(Cl)c1 (configuration not stated),"inconclusive: 16.4 µM [activator, partial curve, poor fit]",
CCOC(=O)c1c(Cc2ccc(Cl)cc2)c[nH]c1C,"inconclusive: 20.6 µM [activator, partial curve, poor fit]",
COc1ccc(NC(=O)c2ccccc2NC(=O)CSc2ccc(Cl)cc2)cc1,"inconclusive: 5.17 µM [activator, single point]",
COc1ccc(Cn2nnnc2C(C(C)C)N2CCN(c3ccccc3OC)CC2)cc1 (configuration not stated),,inactive: -12.5%
COc1ccccc1C(=O)NC(CCSC)C(=O)OCC(=O)N1CCCC1=O (configuration not stated),,inactive: -1.26%
CCCCN1C(=O)/C(=C/C=C2/CC(C)(C)CN2C)SC1=S,"inconclusive: 16.4 µM [activator, partial curve]",
CCOC(=O)c1c(NC(=O)c2ccoc2C)sc(C)c1C,,inactive: -1.53%
Cc1c(C(=O)NCc2cccs2)oc2ccc(Br)cc12,active: 18.4 µM,
CCc1ccc2oc(C(=O)Nc3nonc3CC)c(C)c2c1,"inconclusive: 9.2 µM [activator, partial curve]",
COc1ccc(C(=O)/C=C(\C)Nc2ccc3c(c2)OCO3)cc1,"inconclusive: 7.31 µM [activator, partial curve, poor fit]",
